# According to paper PMC4336329 (PLoS ONE, 2015):
# Hit rate of the full screen: of about 310,000 compounds, about 14,000 (4.5%) showed an effect of 50% or more. Effects have a minus sign here. The list shows a part of the results.
# Molecular target: human ether-à-go-go-related gene (hERG) potassium channel (human, UniProt Q12809)
# Experiment: primary screen, population patch clamp on CHO cells stably expressing hERG
# 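Further: peak tail current of the secondary pulse compared with the same well before compound.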
# human ether-à-go-go-related gene (hERG) potassium channel, sequence (Q12809 whole entry, looked up): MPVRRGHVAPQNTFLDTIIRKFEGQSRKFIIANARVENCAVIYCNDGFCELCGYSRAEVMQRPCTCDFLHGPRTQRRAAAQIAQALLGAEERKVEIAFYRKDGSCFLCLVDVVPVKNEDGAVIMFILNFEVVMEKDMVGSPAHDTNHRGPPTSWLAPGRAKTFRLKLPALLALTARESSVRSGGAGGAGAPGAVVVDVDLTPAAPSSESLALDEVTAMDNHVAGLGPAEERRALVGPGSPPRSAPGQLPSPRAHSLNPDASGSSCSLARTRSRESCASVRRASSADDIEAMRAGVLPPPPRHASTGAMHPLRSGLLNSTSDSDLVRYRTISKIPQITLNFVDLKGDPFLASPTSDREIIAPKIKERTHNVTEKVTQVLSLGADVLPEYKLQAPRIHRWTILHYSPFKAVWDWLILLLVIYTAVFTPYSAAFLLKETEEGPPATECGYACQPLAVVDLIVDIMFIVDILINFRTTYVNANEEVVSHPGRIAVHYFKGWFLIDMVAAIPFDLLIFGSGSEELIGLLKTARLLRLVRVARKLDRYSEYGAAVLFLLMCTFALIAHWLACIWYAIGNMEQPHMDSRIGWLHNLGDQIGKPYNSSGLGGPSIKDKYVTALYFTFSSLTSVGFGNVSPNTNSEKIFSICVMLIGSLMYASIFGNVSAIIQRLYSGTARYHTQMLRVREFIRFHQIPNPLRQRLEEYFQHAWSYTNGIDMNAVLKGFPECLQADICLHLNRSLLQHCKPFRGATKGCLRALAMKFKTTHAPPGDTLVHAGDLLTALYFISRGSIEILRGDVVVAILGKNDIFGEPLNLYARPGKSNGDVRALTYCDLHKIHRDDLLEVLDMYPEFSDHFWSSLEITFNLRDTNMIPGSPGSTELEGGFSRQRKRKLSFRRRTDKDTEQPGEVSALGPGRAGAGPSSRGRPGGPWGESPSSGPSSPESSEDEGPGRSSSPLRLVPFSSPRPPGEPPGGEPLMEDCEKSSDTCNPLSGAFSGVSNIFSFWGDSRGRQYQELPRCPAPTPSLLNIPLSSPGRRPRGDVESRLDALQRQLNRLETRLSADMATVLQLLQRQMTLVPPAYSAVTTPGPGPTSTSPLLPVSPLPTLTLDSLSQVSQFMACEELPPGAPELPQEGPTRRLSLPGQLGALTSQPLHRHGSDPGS
row,SMILES,"hERG current change (%, negative = inhibition) at 10uM [%]"
1,O=C(O)CN(Cc1ccco1)S(=O)(=O)c1ccc(F)cc1,16.7
2,Br.CCn1c(-c2ccccc2)csc1=Nc1ccc(O)cc1,-25.5
3,CC(=O)Nc1ccc(NC(=O)c2ccc(NC(=O)c3ccccc3)cc2)cc1,16.4
4,COc1ccc(CCCC(=O)NC2CCCCC2)cc1,6.2
5,CCC(COC(C)=O)Nc1nc2c([nH]1)c(=O)n(C)c(=O)n2C (stereo not shown),-11.4
6,COCC(=O)Nc1ccc(F)cc1,18.6
7,CCCCn1cc(SCC(=O)O)c2ccccc21,11.7
8,COc1ccc(C(=O)Nc2nccs2)cc1,17.8
9,CC1CCc2ccccc2N1C(=N)N(C)C.Cl (stereo not shown),3.44
10,COc1ccccc1C1C2=C(N=c3s/c(=C/c4cccc(OCC(=O)O)c4)c(=O)n31)c1ccccc1CC2 (stereo not shown),28.7
11,O=C(Nc1ccccc1C(=O)Nc1ccc(F)cc1)c1ccco1,2.86
12,CCOP(=O)(OCC)/C(C#N)=C/c1cc(OC)ccc1OC,12.7
13,Cc1ccc2nc(-c3cccs3)oc(=O)c2c1,0.723
14,CCOC(=O)C1CCN(S(=O)(=O)c2ccc(C)c(C(=O)NC3CCCCC3)c2)CC1,-55.8
15,CC(C)c1nc2n[nH]c(N)c2c2c1CCC2,10.3
16,Cc1ccc(C(C)C)c(OCC(O)CN2CCc3ccccc3C2)c1.Cl (stereo not shown),-65
17,O=C(OCc1ccc([N+](=O)[O-])cc1)C1CC(=O)N(Cc2ccccc2Cl)C1 (stereo not shown),-66.4
18,Cc1cccc(-n2ncc3c2CCCC3NC(=O)CCN2Cc3ccccc3C2=O)c1C (stereo not shown),2.55
19,CCOC(=O)C1CCCN(C(=O)c2ccc(S(=O)(=O)N3CCOCC3)cc2)C1 (stereo not shown),12
20,O=C(Nc1cccc(Oc2ccc3c(c2)C(=O)NC3=O)c1)c1ccco1,-21.8
21,CCOc1ccc(CN(CCCl)CCCl)cc1C(=O)OC.Cl,7.69
22,CN(CC(=O)Nc1ccc(Cl)cc1)C(=O)c1ccc(-n2cncn2)c([N+](=O)[O-])c1,-70.3
23,COc1cccc(-c2ccc(NC(=O)C3CCCN(Cc4cnc(C)n4C)C3)cc2)c1 (stereo not shown),-74.3

row,SMILES,"hERG current change (%, negative = inhibition) at 10uM [%]"
1,CC(=O)Nc1nc2ccc(Br)cc2s1,-1.32
2,O=C(c1ccc(-n2cncn2)c([N+](=O)[O-])c1)N1CCN(S(=O)(=O)c2c(F)cccc2F)CC1,-56.8
3,COc1cccc2[nH]c3c(Cl)ncnc3c12,-4.93
4,O=C(NCc1nnnn1-c1ccc(F)c(F)c1)c1ccc(S(=O)(=O)N2CCOCC2)cc1,-9.56
5,O=C1S/C(=C\c2ccc(N3CCOCC3)o2)C(=O)N1c1ccccc1,13.3
6,CCN(CC)S(=O)(=O)c1cc(C(=O)O)ccc1OC,1.19
7,O=C(O)c1ccccc1NCCO,33.8
8,c1ccc(-c2ccc(-c3csnn3)cc2)cc1,14.2
9,O=C(CN1CCCN(S(=O)(=O)c2ccc(F)cc2)CC1)Nc1c(Cl)cccc1Cl,-27.1
10,N#Cc1ccccc1Sc1ccccc1C(=O)OCc1nnc(-c2ccccc2)o1,10.2
11,O=C(CSCc1ccc(Cl)cc1)N/N=C/c1ccc(OCC(=O)Nc2ccccc2)cc1,10.2
12,O=C(CCc1nnc(CCCCc2ccccc2)o1)N1CCC(N2CCCC2)CC1,-0.932
13,COc1cc2ccccc2cc1C(=O)OCC(=O)c1c(N)n(C)c(=O)n(C)c1=O,-28.4
14,COc1ccc(NC(=O)CCC(=O)c2ccc(C(C)C)cc2)cc1,27.7
15,Cc1n[nH]c(C)c1CCN(C)Cc1cn(C)nc1-c1ccccc1F,12.3
16,O=C1C=C(c2cnc3ccccc3c2)C[C@@H](c2ccc3c(c2)OCO3)C1,-1.3
17,Cc1cc(C)c2[nH]c(C(=O)Nc3ccc(F)cc3Br)cc2c1,13.4
18,CC(C)(C)[C@H]1C=C(C(N)=O)O[C@@H](OCCCCO)C1,4.84
19,CCCCn1c(N)c(N(CCOC)C(=O)CCCc2nc3ccccc3s2)c(=O)[nH]c1=O,6.21
20,O=C(Nc1ccnn1C1CCN(Cc2ccccc2F)CC1)C1CCCC1,-45.4
21,CC(=O)c1ccc(NC(=O)CN2C(=O)COc3ccc(Cl)cc32)cc1,1.8
22,O=C(CCn1cccc1)Nc1nccs1,-0.358
23,C[C@@H](C(=O)NCCc1ccccc1F)N1C(=O)N2CCc3c([nH]c4ccccc34)[C@@]2(C)C1=O,-27.2

row,SMILES,"hERG current change (%, negative = inhibition) at 10uM [%]"
1,Cc1ccc(NC(=O)CCC(=O)c2cc(C)sc2C)nc1,-19.3
2,Cc1ccccc1NC(=S)N(CCN1CCCCCC1)Cc1cccs1,-39.5
3,O=C(CCCC(=O)NNC(=O)Nc1ccccc1)NNC(=O)Nc1ccccc1,22.9
4,Cc1ccc(CN2CCC(CO)(CC3CCCCO3)CC2)o1 (stereo not shown),10.6
5,CC(=O)N1CCC(=NNC(=O)c2cc3ccccc3cc2O)CC1,16.8
6,CC1CN(C(=O)Cn2c(=O)oc3ccccc32)CC(C)O1 (stereo not shown),23
7,O=C(NC1CCCC1)c1cnn2c(C(F)(F)F)cc(-c3ccco3)nc12,-42.2
8,O=Cc1ccc(OCc2ccc3ccccc3c2)cc1,21.5
9,CCOC(=O)c1c(NC(=O)CN2C(=O)NC3(CCCCC3C)C2=O)sc(C)c1C (stereo not shown),10.4
10,O=C(COC(=O)CCc1ccccc1)NC1CCS(=O)(=O)C1 (stereo not shown),13.1
11,COCCn1nnnc1C(c1ccc(OC)cc1OC)N1CCN(c2ccccc2)CC1 (stereo not shown),-70.8
12,CCOc1ccc2nc(-c3ccccc3)[nH]c2c1,4.83
13,O=C(O)C1=C[C@@H](c2ccc3c(c2)OCO3)C[C@@H](OCCCCO)O1,20.5
14,Cc1cccc(-c2cc(C(=O)N3CCCc4ccccc43)c3ccccc3n2)c1,8.75
15,CCOC(=O)c1ccccc1NS(=O)(=O)c1ccccc1F,9.96
16,CC(C)(C)C(=O)c1sc(Nc2ccccc2)nc1N,-8.92
17,CCn1ccc(C(=O)Oc2ccc(C(C)C)cc2)n1,-4.72
18,COc1cccc(Nc2ncnc3ccccc23)c1.Cl,2.97
19,CN(C)C(=O)Oc1cccc(-c2cn3cc(Cl)ccc3n2)c1,-9.64
20,COc1cc(OC)c(NC(=O)c2cc(S(=O)(=O)N3CCOCC3)cn2C)cc1Cl,-5.85
21,O=C(COC(=O)c1ccc(S(=O)(=O)NCc2ccco2)cc1)Nc1ccc(OC(F)F)cc1,-9.32
22,Cc1ccc(-c2nnc(N(C)C(=O)c3cccnc3)s2)cn1,19
23,CCn1ncc(NC(=O)Nc2cccc(C(F)(F)F)c2)c1C(N)=O,1.77

row,SMILES,"hERG current change (%, negative = inhibition) at 10uM [%]"
1,COC(=O)c1cc(S(=O)(=O)NCc2ccc3c(c2)OCO3)cn1C,-0.484
2,CCOC(=O)N1CCN(S(=O)(=O)N2CCCC(C(=O)NCCc3ccc(Cl)cc3)C2)CC1 (stereo not shown),-36.2
3,NS(=O)(=O)c1ccc(CCNC(=O)CN2CCN(c3ccc(F)cc3)CC2)cc1,-18.7
4,Cc1cc(NC(=O)/C=C/c2ccccc2Cl)n(-c2nc3ccccc3[nH]2)n1,19.8
5,CCOC(=O)C1CCN(c2nc(-c3ccc(Br)cc3)nc3ccccc23)CC1,-1.89
6,O=c1[nH]nc(-c2ccc(F)cc2)cc1Cc1ccccc1,3.89
7,Cc1ccc(C(=O)N/N=C(\CC(C)C)c2ccccc2)cc1,-36.1
8,Cc1cc(/C=C2\C(=O)NC(=O)N(c3ccc(Cl)cc3)C2=O)c(C)n1-c1sc2c(c1C#N)CCCC2,12.4
9,CCc1ccc2nc(SCC(=O)N3CC(=O)Nc4ccccc43)c(C#N)cc2c1,2.85
10,COc1ccc(Nc2cc(C(=O)NCc3ccco3)c3ccccc3n2)cc1,-0.014
11,COc1cccc(OC)c1C(=O)NC(=O)Oc1c(F)cccc1F,19.9
12,O=C(O)Cc1ccc(NC(=O)Nc2cccc3ccccc23)cc1,11.4
13,COc1nc(N=C(N)N)nc2ccc(C)cc12,-2.73
14,COc1ccc(C(=O)/C=C/c2ccccc2)c(OC)c1,-19
15,Cc1c(N)c(C)c([N+](=O)[O-])c(C)c1[N+](=O)[O-],-10.1
16,C=CCN1C(=O)NC2(CCCCC2)C1=O,-14
17,O=C(NCc1ccco1)c1ccc2c(c1)S(=O)(=O)c1ccccc1C2=O,-49.6
18,COc1ccccc1N1CCN(C2=Nc3cccc4cccc2c34)CC1,-71.5
19,CCOc1ccc(NC(=S)N2CCC(N(C)CCN3CCOCC3)CC2)cc1,-15.9
20,Cc1cc(C)n(-c2ccc(C(=O)C(C#N)c3nc4ccccc4n3C)cc2)n1 (stereo not shown),-7.73
21,CN1C(=O)C2(OCCCO2)c2cc(Cl)ccc21,19.3
22,COc1ccc([N+](=O)[O-])cc1NCc1ccccc1.O=C(O)C(=O)O,2.96
